# Laboratory results taken from publication PMC4336329 (PLoS ONE, 2015).
# About 2,200 (0.71%) of roughly 310,000 compounds showed an effect of 50% or more. The effect is printed as a negative number. Some of the results follow.
# Target: human ether-à-go-go-related gene (hERG) potassium channel (human, UniProt Q12809)
# Assay: primary screen, population patch clamp on CHO cells stably expressing hERG
# Chain of human ether-à-go-go-related gene (hERG) potassium channel (Q12809 whole entry, looked up): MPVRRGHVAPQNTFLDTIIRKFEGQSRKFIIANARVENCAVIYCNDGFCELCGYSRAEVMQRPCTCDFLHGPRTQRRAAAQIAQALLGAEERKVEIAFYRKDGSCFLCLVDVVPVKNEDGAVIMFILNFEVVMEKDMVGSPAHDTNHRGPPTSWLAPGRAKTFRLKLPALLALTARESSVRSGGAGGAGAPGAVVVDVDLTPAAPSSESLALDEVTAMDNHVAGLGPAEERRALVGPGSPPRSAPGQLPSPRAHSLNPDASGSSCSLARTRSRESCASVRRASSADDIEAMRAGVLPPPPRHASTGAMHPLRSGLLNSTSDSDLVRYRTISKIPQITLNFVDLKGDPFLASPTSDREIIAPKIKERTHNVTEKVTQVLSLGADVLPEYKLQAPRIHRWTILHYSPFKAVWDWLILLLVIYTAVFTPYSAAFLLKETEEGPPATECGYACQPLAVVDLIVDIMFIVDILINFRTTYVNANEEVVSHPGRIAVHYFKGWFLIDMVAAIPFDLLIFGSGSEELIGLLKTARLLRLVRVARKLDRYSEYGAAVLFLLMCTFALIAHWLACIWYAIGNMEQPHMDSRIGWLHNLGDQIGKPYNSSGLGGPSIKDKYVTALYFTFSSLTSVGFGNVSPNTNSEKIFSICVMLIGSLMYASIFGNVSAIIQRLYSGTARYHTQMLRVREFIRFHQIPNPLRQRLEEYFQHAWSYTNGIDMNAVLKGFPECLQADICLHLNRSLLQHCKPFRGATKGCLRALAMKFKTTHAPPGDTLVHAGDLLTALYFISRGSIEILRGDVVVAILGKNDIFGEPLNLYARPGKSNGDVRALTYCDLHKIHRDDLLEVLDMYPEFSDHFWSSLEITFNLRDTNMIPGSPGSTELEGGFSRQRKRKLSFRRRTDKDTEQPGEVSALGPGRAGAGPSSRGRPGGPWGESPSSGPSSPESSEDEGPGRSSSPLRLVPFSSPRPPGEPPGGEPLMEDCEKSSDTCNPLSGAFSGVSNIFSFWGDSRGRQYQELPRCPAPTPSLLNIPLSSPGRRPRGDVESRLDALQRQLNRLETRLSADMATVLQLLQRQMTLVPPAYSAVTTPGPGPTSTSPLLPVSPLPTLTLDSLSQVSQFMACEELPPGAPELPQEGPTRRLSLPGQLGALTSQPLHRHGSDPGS
row,SMILES,"hERG current change (%, negative = inhibition) at 1uM [%]"
1,Cc1ccc(NC(=O)C(C)SCc2nc3sc4c(c3c(=O)[nH]2)CCCC4)nc1 (centres unmarked),3.05
2,Cc1cccc(-n2c(SCC(=O)Nc3nnc(C)s3)nnc2-c2ccoc2C)c1,-8.46
3,C=CCn1c(COc2ccc(Cl)cc2)nnc1SCC(=O)N1CC(=O)Nc2ccccc21,-7.22
4,COc1c(O)cc2c(c1O)[C@@H]1O[C@H](CO)[C@@H](O)[C@H](O)[C@H]1OC2=O,12.8
5,O=C(NCc1ccco1)/C(=C\c1cccc([N+](=O)[O-])c1)NC(=O)c1ccco1,-29.9
6,COc1ccc(C2Nc3ccccc3C(=O)N2Cc2ccccc2)cc1CN1CCOCC1 (centres unmarked),-12.5
7,C/C(=N\NC(=O)C1CC1)c1ccccc1Br,15
8,CCCn1c(=O)c(C(=O)Nc2cccc(C)c2)c(O)c2ccccc21,6.52
9,C=CCN(C(=O)C1CC(=O)N(C2CCCC2)C1)c1nc(-c2ccc(S(C)(=O)=O)cc2)cs1 (centres unmarked),8.45
10,O=C(O)c1ccn(CSc2cc(Cl)ccc2Cl)n1,10.4
11,COc1ccc(NC(=O)N2CCN(C(=O)Nc3ccc(OC)cc3)CC2)cc1,11
12,Cn1c(SCc2ccccc2Cl)nc2ccccc21,13.6
13,Cc1ccc(-c2ccc(/C=N/N3C(=O)C4C5C=CC(C6CC56)C4C3=O)o2)c([N+](=O)[O-])c1 (centres unmarked),3.7
14,O=C(O)CSCC(=O)Nc1ccccn1,13.5
15,CC[C@H](C)C(N)c1cn([C@@H](CC(N)=O)C(=O)N2CCNCC2)nn1 (some centres unmarked),-7.01
16,Cc1cccc(C(=O)OCC(=O)N2CCCC2=O)c1[N+](=O)[O-],-3.24
17,COc1ccc(C(=O)NCCNC(=O)c2cnccn2)cc1OC,16.2
18,CC(C)=CCC/C(C)=C/CC/C(C)=C/CC/C(C)=C/CC1=C(C)C(=O)c2ccccc2C1=O,12.3
19,CCCCOC(=O)c1ccc(NC(=O)c2cnc3n(c2=O)CCS3)cc1,7.18
20,CCc1cc(-c2nnc(SCC(=O)NC3CC3)n2C)cs1,5.22
21,Fc1ccccc1NC(=S)N1CCN(c2ccccn2)CC1,16.9
22,CCOc1ccc(Br)cc1S(=O)(=O)Nc1cccc(S(=O)(=O)NC2=NCCC2)c1,10.7

row,SMILES,"hERG current change (%, negative = inhibition) at 1uM [%]"
1,O=C(O)c1cccc(Nc2nc(Nc3ccccc3)nc(N3CCCC3)n2)c1,12.4
2,Cc1ccc2c(c1)c1c(n2CC(O)CN2CCCCCC2)CCCC1.Cl (centres unmarked),-2.41
3,CCCCCn1c(CCC(=O)Oc2ccccc2OC)nc2c1c(=O)[nH]c(=O)n2CCCC,2.3
4,O=C(N1CCCCCC1)N1CCN(S(=O)(=O)c2ccccc2)CC1,-6.18
5,CC(C)CC(=O)Nc1ccc(C(=O)CN2C(=O)NC3(CCOc4ccccc43)C2=O)cc1 (centres unmarked),11.6
6,N#C/C(C(=O)Oc1ccccc1)=C1\C=Cc2ccccc2N1,10.5
7,Cc1ccc2[nH]c(=O)c(CN(Cc3nnnn3C3CCCC3)C3CCCCC3)cc2c1,6.38
8,CCn1cc2nc(SCC(=O)Nc3ccc(OC)cc3OC)n(Cc3ccc(OC)cc3)c(=O)c2n1,7.03
9,C=CCOc1c2ccc(C(=O)NCc3ccccc3OC)cc2nn1C,10.4
10,CCOc1ccc(NC(=O)CCCc2cc(-c3ccc(OCC)cc3)on2)cc1,14.6
11,CC(=O)c1cccc(NC(=O)C(OC(=O)c2cccs2)c2ccccc2)c1 (centres unmarked),2.37
12,Cc1ccc2nc(SCC(=O)N3CCN(C(=O)c4ccco4)CC3)[nH]c2c1,-10.5
13,COc1ccc(OC)c(C(c2nnnn2Cc2ccccc2)N2CCN(C)CC2)c1.Cl (centres unmarked),14.2
14,CCCCSc1nc(C(=O)O)cc(=O)[nH]1,-0.661
15,COC(=O)c1cc(C(=O)OC)n(Cc2ccc(F)cc2)c1C,9.25
16,COc1cccc(C2NC(=O)NC(C)=C2C(=O)OCCSC)c1OC (centres unmarked),6.85
17,CC1CCc2c(sc(NC(=O)c3ccc(Cn4cc([N+](=O)[O-])cn4)o3)c2C#N)C1 (centres unmarked),10.1
18,CCCCc1nc2n[nH]c(N)c2c2c1CCCC2,6.58
19,CN1CCN(C(=O)C23CC4CC(C)(CC(C)(C4)C2)C3)CC1.Cl,13.4
20,CC1(C)CC(=O)C/C(=N\NC(=O)C2C3CCCCC32)C1 (centres unmarked),20.2
21,COCCCNC(=O)c1ccc(-n2nc(C(F)(F)F)cc2-c2cccs2)cc1,2.67
22,CN(C)N1C(N)=C(C#N)C(c2cccnc2)C2=C1CC(C)(C)CC2=O (centres unmarked),6.15

row,SMILES,"hERG current change (%, negative = inhibition) at 1uM [%]"
1,Cc1ccc(-c2nc(C(=O)NCCCN(C)C)cc3c2[nH]c2ccccc23)cc1,1.93
2,O=C(Cc1ccc(-n2c(=O)c3ccccc3n(CC(=O)Nc3ccc(F)cc3F)c2=O)cc1)NCc1ccco1,17.1
3,Nc1nnc(SCC(=O)Nc2ccccc2N2CCOCC2)s1,9.59
4,Cc1ccc(OCCC(=O)Nc2ccc(S(=O)(=O)Nc3nccs3)cc2)cc1,16.5
5,COc1ccccc1CCC(=O)Nc1ccc2c(c1)CN(Cc1ccc(CO)o1)CC2,14.7
6,CC1(C)Cc2c(C#N)c(N3CCN(C(=O)c4ccco4)CC3)nc(Cc3ccccc3)c2CO1,-0.232
7,CC(=O)N=Nc1[nH]c(N)c2ccccc12,14.4
8,CCCS(=O)(=O)N1CCN=C1SCc1ccc(C)cc1,2.13
9,CCOc1ccc(-n2c(C)c(C(=O)O)c3cc(OC)ccc32)cc1,19.6
10,Cc1cc(NC(=O)COc2ccccc2)ccc1Cl,6.17
11,CCOc1ccccc1Nc1ncnc2ccccc12.Cl,-9.83
12,O=c1[nH]c(SCc2ccc(Cl)cc2)nc2ccccc12,10.7
13,CCOC(=O)c1ccc(NC(=O)CSc2n[nH]c(-c3ccncc3)n2)cc1,8.2
14,NC(=O)C1CC12c1ccccc1-c1ccccc12 (centres unmarked),11.1
15,Cc1ccc(NS(=O)(=O)c2cc(C(=O)N3CCN(C)CC3)ccc2C)cc1,-5.33
16,CN1CCC(N(C)C(=S)Nc2ccc(SC(F)F)cc2)CC1,-34.3
17,O=C(c1cc(COc2c(F)cccc2F)on1)N1CCN(C2CCCCC2)C(=O)C1,9.96
18,NC[C@H]1O[C@H](O[C@H]2[C@H](O)[C@@H](O[C@H]3O[C@H](CO)[C@@H](O)[C@H](N)[C@H]3O)[C@H](N)C[C@@H]2N)[C@H](N)C[C@@H]1O.O=S(=O)(O)O,8.63
19,Cc1cc(C)cc(OCCNS(=O)(=O)c2cccs2)c1,36.6
20,CSc1cccc(NC(=O)c2cc(S(=O)(=O)N3CCc4ccccc43)cn2C)c1,-1.68
21,COc1ccc(C(=O)NNC(=S)NC2CCCCC2)cc1OC,14.8
22,O=C(CSCc1c(Cl)cccc1Cl)NCc1ccco1,5.36

row,SMILES,"hERG current change (%, negative = inhibition) at 1uM [%]"
1,COc1ccc2c(C)cc(=O)[nH]c2c1,-1.82
2,C=CCn1c(=O)[nH]c2cc(C(=O)N3CC=C(c4ccccc4)CC3)ccc2c1=O,14.2
3,Cc1ccccc1C(=O)N1CCN(c2ccc(NC(=O)c3ccco3)cc2Cl)CC1,-3.61
4,COCCCn1c(C)nnc1SCC(=O)Nc1cccc(C)c1,9.29
5,CC(NC(=O)COC(=O)C1(C)CC1(Cl)Cl)c1ccccc1 (centres unmarked),-1.29
6,C=CCN(c1ccccc1Cl)S(=O)(=O)c1cccc(C(=O)OCC(=O)N(C)C2CCS(=O)(=O)C2)c1 (centres unmarked),9.58
7,CCCCCCn1c(=O)c(-c2ccccc2)c(O)c2ccccc21,-5.95
8,Cc1ccc(-n2nc3c(=O)n(CCCC(=O)NCCc4ccccc4C)nc(C)c3c2C)cc1,9.46
9,CCC(=O)Nc1cccc(-c2ccc(N3CCC(C)CC3)nn2)c1,12.1
10,CC1CN(C(=O)c2nn(C)cc2[N+](=O)[O-])CC(C)O1 (centres unmarked),9.15
11,Oc1ccc(/C=N/N=C/c2ccc(O)c(O)c2)cc1O,14.2
12,COc1cc(NC(=O)CCCl)cc(-n2cnnn2)c1,5.72
13,Cc1noc(C)c1CCC(=O)N1CCCC(CCC(=O)NCc2ccc(F)c(F)c2)C1 (centres unmarked),-11.7
14,C/C(=N\Nc1ccc([N+](=O)[O-])cc1)c1ccco1,10.8
15,COCCCNc1nc(-c2ccc(Cl)cc2)nc2ccccc12,7.26
16,O=C(c1ccco1)N1CCN(C(=O)C2CC(c3ccc(Cl)cc3)=NO2)CC1 (centres unmarked),-66.5
17,CCCCn1c(=O)c(CCC(=O)OCC(=O)NC(C)c2ccccc2)nc2ccccc21 (centres unmarked),8.54
18,Cc1ccc(S(=O)(=O)N2[C@@H](c3ccccc3F)C(C(=O)O)=CC[C@H]2c2cccc(Cl)c2)cc1,13.1
19,Cc1nc(-n2nnc3ccccc32)c2c3c(sc2n1)CCCC3,-0.0299
20,CCOC(=O)C1=NN(c2ccc(Cl)cc2)/C(=C/C2=NCCc3cc(OC)c(OC)cc32)S1,10.6
